{"source": "PubChem BioAssay AID1347120", "about": "(National Center for Advancing Translational Sciences (NCATS), 2019)", "note": "The campaign covered roughly 390,000 compounds. About 930 (0.24%) were called active. The shares of active, inactive and inconclusive entries below differ from those in the screen. Calls come from the whole dose curve; as a rule, active = well fitted activation curve with a large enough effect; inconclusive = small, poorly fitted or top-dose-only effect; inactive = no such curve, though single readings can be large or run the other way. Potencies beside an inconclusive call are fits to weak or partial responses and may not hold up. Potency is the fitted concentration of half-maximal effect; tags give direction and shape of the fitted curve.", "data": [{"test": "qHTS for Suppressors of FUS Proteinopathy: Primary screen using FUS-linked yeast assay; note: nearly all actives have a fitted effect of over 55% in size;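 for growth rescue (activation): plate controls were DMSO vehicle for no effect and reference control for full effect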", "settings": "S. cerevisiae FUS-expressing, OD600, 24 h; Potency: growth rescue; growth rescue (activation): at 76.6 µM (top of the series)", "summary_of_the_method": "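Restored growth of FUS-toxic S. cerevisiae, read as 600 nm absorbance after 24 h at 30C in galactose medium (starting OD 0.005). Controls CP55940 and DMSO.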", "values": [{"smiles": "CCOc1ccccc1NC(=O)C1COc2ccccc2O1", "note": "(stereo unspecified)", "Potency": "inconclusive: 5.62 µM [activator, single point]"}, {"smiles": "COc1ccc(-c2cc(OC(=O)c3ccc(F)cc3)c3c(C)oc(C)c3c(=O)c2)cc1OC", "Potency": "inconclusive: 28.2 µM [activator, single point]"}, {"smiles": "CC(C)CCn1c(CN(C)Cc2ccccc2)nc2c1c(=O)n(C)c(=O)n2C", "growth rescue (activation)": "inactive: -1.47%"}, {"smiles": "Cc1ccc([N+](=O)[O-])cc1-c1ccc(/C=C(\\C#N)c2[nH]nc(N)c2C#N)o1", "Potency": "inconclusive: 8.91 µM [activator, full curve]"}, {"smiles": "O=C(CCCOc1ccc(Cl)cc1Cl)N1CCc2ccccc2C1", "Potency": "inconclusive: 50.1 µM [activator, single point]"}, {"smiles": "CC(O)[C@H]1CC[C@H]2[C@@H]3CC[C@H]4C[C@@H](O)CC[C@]4(C)[C@H]3/C(=N/O)C[C@]12C", "note": "(stereo partly specified)", "Potency": "inconclusive: 28.2 µM [activator, partial curve, poor fit]"}, {"smiles": "Cc1ccccc1C(=O)N1CCc2cc(-c3csc(NC(=O)CN4CCCC4)n3)ccc21", "Potency": "inconclusive: 20 µM [activator, partial curve, poor fit]"}, {"smiles": "FC(F)(F)c1cccc(-c2cc3nc(NCCOc4ccccc4)ccn3n2)c1", "Potency": "inconclusive: 22.4 µM [activator, partial curve, poor fit]"}, {"smiles": "COc1ccccc1NC(=O)CCS(=O)(=O)c1ccc2c(c1)NC(=O)C(C)S2", "note": "(stereo unspecified)", "growth rescue (activation)": "inactive: -7.75%"}, {"smiles": "O=C(Nc1cc(F)ccc1F)c1ccc2c(c1)nnn2C1CCCC1", "growth rescue (activation)": "inactive: -16.6%"}, {"smiles": "CCOC(=O)c1ccccc1NC(=O)N1CCCN(S(=O)(=O)c2ccc3c(ccn3CC)c2)CC1", "Potency": "inconclusive: 17.8 µM [activator, partial curve, poor fit]"}, {"smiles": "O/N=C/c1ccc(OCc2ccccc2)c(Br)c1", "growth rescue (activation)": "inactive: -7.58%"}, {"smiles": "OC(c1ccccc1)(c1ccccc1)C1CCN(C(=S)NC2CCCC2)CC1", "Potency": "inconclusive: 28.2 µM [activator, single point]"}, {"smiles": "Cc1ccc(S(=O)(=O)N(CC(=O)N2CCc3ccccc3C2)c2ccc(C)c(C)c2)cc1", "Potency": "inconclusive: 22.4 µM [activator, single point]"}, {"smiles": "COc1cccc(-c2cc(NC=O)c3ncc(-c4ccc(OC)c(OC)c4)n3c2)c1", "Potency": "inconclusive: 31.6 µM [activator, partial curve]"}, {"smiles": "COc1ccc(N/C=C2\\CCOC2=O)cc1", "growth rescue (activation)": "inconclusive: 74.4% [activator]"}, {"smiles": "COCCCNc1ncnc2c1sc1nc(-c3ccco3)c3c(c12)CC(C)(C)OC3", "Potency": "inconclusive: 35.5 µM [activator, single point]"}, {"smiles": "CCn1cc(C(=O)O)c(=O)c2cc(S(=O)(=O)N(C)C)ccc21", "growth rescue (activation)": "inactive: 22.8%"}, {"smiles": "C[C@H]1CN([C@@H](C)CO)C(=O)CCCn2nncc2CO[C@H]1CN(C)S(=O)(=O)c1ccc(Oc2ccccc2)cc1", "Potency": "inconclusive: 17.8 µM [activator, partial curve, poor fit]"}, {"smiles": "COc1ccc(OC)c(S(=O)(=O)N2Cc3ccccc3CC2C(=O)Nc2ccc(C)cc2C)c1", "note": "(stereo unspecified)", "Potency": "inconclusive: 11.2 µM [activator, partial curve, poor fit]"}, {"smiles": "COc1ccc(CC2CCN(c3ncnc4sccc34)CC2)cc1", "growth rescue (activation)": "inactive: 28.7%"}, {"smiles": "COC(=O)c1ccc(COc2ccccc2/C=C(\\C#N)C(=O)Nc2c(C)cccc2C)cc1", "growth rescue (activation)": "inactive: 14.7%"}, {"smiles": "COc1ccc(-c2cc(C(F)(F)F)nc(SCC(=O)N3CCCCC3)n2)cc1OC", "growth rescue (activation)": "inactive: 34%"}, {"smiles": "Cc1c(CCOC(=O)CC23CC4CC(CC(C4)C2)C3)sc[n+]1CC(=O)c1ccc(Br)cc1", "Potency": "inconclusive: 35.5 µM [activator, single point]"}, {"smiles": "CC1Cc2ccccc2N1C(=O)C1CCCN1S(=O)(=O)c1ccc(Cl)cc1", "note": "(stereo unspecified)", "growth rescue (activation)": "inconclusive: -99.8% [activator]"}, {"smiles": "COc1ccc(S(=O)(=O)N(C)[C@H]2C[C@H]3c4cc(Oc5ccccc5C)ccc4CCN3C(=O)[C@H]2[C@H](C)O)cc1", "Potency": "inconclusive: 25.1 µM [activator, partial curve, poor fit]"}, {"smiles": "Cn1c(CN2CCCC2)nc2cc(NS(=O)(=O)c3ccc(Cl)cc3)ccc21", "Potency": "inconclusive: 50.1 µM [activator, single point]"}, {"smiles": "COc1cc2c(c(OC)c1OC)-c1c(cc3c(c1O)OCO3)C[C@@H](C)[C@@H](C)C2", "Potency": "inconclusive: 20 µM [activator, single point]"}, {"smiles": "Cc1ccc(CNC(=O)c2ccc(CS(=O)(=O)Cc3ccc(F)cc3)o2)cc1", "growth rescue (activation)": "inactive: -21.5%"}, {"smiles": "COc1ccc(NCc2cc3cc4c(cc3n(CC(=O)Nc3cccc(F)c3)c2=O)OCO4)cc1", "Potency": "inconclusive: 22.4 µM [activator, partial curve]"}, {"smiles": "CC(C)NC(=O)N1Cc2cc(C(=O)NCC(F)(F)F)nc(-c3cccc(-c4cc5ccccc5o4)c3)c2[C@@H]1CCO", "Potency": "inconclusive: 25.1 µM [activator, partial curve]"}, {"smiles": "COCCn1nnnc1C(C(C)C)N(Cc1ccccc1)Cc1cc2cc(OC)ccc2[nH]c1=O", "note": "(stereo unspecified)", "Potency": "inconclusive: 35.5 µM [activator, single point]"}, {"smiles": "O=C(CCNc1ccc(Cl)cc1)c1cccs1", "growth rescue (activation)": "inactive: -32.6%"}, {"smiles": "O=C(NC1CCCCC1)c1ccc2c(c1)N(Cc1cccc(F)c1)C(=O)c1ccccc1S2", "growth rescue (activation)": "inactive: -7.89%"}, {"smiles": "CCOCCc1nnc(NC(=O)C(=O)c2cc(C)n(-c3cccc(C)c3)c2C)s1", "Potency": "inconclusive: 20 µM [activator, partial curve, poor fit]"}, {"smiles": "Cn1cnc(S(=O)(=O)N2CCC(C(=O)Nc3ccc(F)cc3F)CC2)c1", "growth rescue (activation)": "inactive: -9.36%"}, {"smiles": "CC(C)(C)NC(=O)COc1ccc(CNc2ccc3[nH]c(=O)[nH]c3c2)cc1", "Potency": "inconclusive: 17.8 µM [activator, single point]"}, {"smiles": "Cc1cc2nc(N3CCN(C(=O)c4ccco4)CC3)sc2cc1C", "growth rescue (activation)": "inactive: -1.47%"}, {"smiles": "COc1cccc2c1C(=O)c1c(O)c3c(c(O)c1C2=O)C[C@@](O)(C(=O)CO)C[C@@H]3O[C@H]1C[C@H](N)[C@H](O)[C@H](C)O1", "growth rescue (activation)": "inactive: 19.8%"}, {"smiles": "Cc1cc(OCCOCCNC(C)C)cc(C)c1Cl", "Potency": "inconclusive: 11.2 µM [activator, single point]"}, {"smiles": "CC(C(=O)Nc1ccc(Cl)cc1)c1ncc(C(F)(F)F)cc1Cl", "note": "(stereo unspecified)", "growth rescue (activation)": "inactive: 9.94%"}]}]}
